# Measured values as given in the supplement of paper PMC11417369.
# This is one part of the list.
# Test system: PfHDP1 homeodomain (GST-tagged)
# Assay: gcPBM binding intensity (ln(normalized median fluorescence intensity)); higher = stronger DNA binding
# Summary of the method: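 Plasmodium falciparum DNA-binding domains carrying a GST tag were expressed in E. coli and applied for 1 h, at about 25 μg on average, to an Agilent 4 × 180k array. The array held primer-extended double-stranded 36-bp intergenic genomic probes together with negative controls, and binding took place in 1× PBS with 1% milk, 0.2 mg/ml BSA, 0.5% salmon testes DNA and 0.03% Triton X-100. An Alexa488 anti-GST antibody detected bound protein, and the array was scanned at 488 nm. Binding intensity is taken as the highest Masliner-normalised natural-log median intensity across replicate spots of either probe orientation.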
row,Sequence,gcPBM binding intensity (ln)
1,AGTAGATATAAAAGGAGTACACATATATATATAAAT [XGTACX_site4375],6.87
2,CATATACAGAAACACACACACACATAAATAAATATA [CACACA_site1343],6.84
3,TTTAATTAAATATGTATATATATTCATGTATGTATA [GTGCAC_negctrl_site14],6.53
4,AATATATAAGTGTTGTGTACTAAAGTATTTTCCTAT [XGTACX_site1622],6.55
5,AAAAAAAAAAGACACACACACATATTTATTTATATA [CACACA_site6484],6.47
6,TTTGAAATAAATAATGCACACTCTACATATATACGT [CACACA_site2244],10.6
7,CCTATCCATACATATACACACATATCTATTTATATA [CACACA_site1669],7.14
8,CAACATTTATATTTTACACACATCATTTAAGCGCTT [CACACA_site992],6.76
9,TTATTATATAAAATAAATAACAAAAAAAATAAAATA [GTGCAC_negctrl_site548],6.43
10,ATTGTTTTATATAGAACACACATAAAAATCTATATG [CACACA_site6681],6.42
11,AAATAAAATACAAGTTGTACTATAAGCTTTTTATAT [XGTACX_site8021],6.43
12,AATATGGTTATATATATATATATATATATATATATT [GTGCAC_negctrl_site566],7.61
13,TATATATATATATATACATGCATATTTTTTATTTTT [TGCATGCA_site464],9.46
14,TGTCTTATATATATTACACACTATATGAAAAAATAT [CACACA_site1487],6.9
15,TATATTTATCTGATAACACACATAAATTAGACATTT [CACACA_site6887],6.39
16,TTTTTTATATATATTTGTACATATTGCATGTTCCCT [XGTACX_site7143],7.27
17,TAAAGTATTACAACCACACACACACCGATATATTAT [CACACA_site9382],6.78
18,AAAAGAAATTTGGGCACATGCGAATTTATAATTTAT [TGCATGCA_site960],6.58
19,TAATTTAATAATTAGACACACATGTCTAAAATAAAA [CACACA_site2527],6.01
20,TATATATTCTTTTAATGTACATATTGTATTATATCC [XGTACX_site4501],6.56
21,ATATATTTAAACAAAAGTACAAATCATAAATTCAAG [XGTACX_site3633],6.07
22,ATTTTTTAAAAAGTAACACACACTCTTATATATAAT [CACACA_site9206],6.64
23,TGACATAAAAAATATACACACTATAATATTTATACT [CACACA_site6776],6.28

row,Sequence,gcPBM binding intensity (ln)
1,TCTTTATCTTCTTATACACACATTTATTAAAAAAAA [CACACA_site445],7.26
2,ATTTTTTTTTTTTTTTTTTTTGCACCATAAAATAAT [CACACA_negctrl_site1324],10.1
3,TATATACTCAAACACACACACACATACACAGACATA [CACACA_site5025],7.1
4,ATTTTGACATTATATAGTACATATAATTTACATTTA [XGTACX_site3024],6.64
5,TATATATATATGTGTACACATTTGTCAGATTATATA [CACACA_site4813],8.83
6,AGATTGGAACATTAAAGTACTTACTTTTTTTTTTTT [XGTACX_site8017],6.14
7,AGAAATATATCTATTTGTCCGTATATTCATATTTAT [XGTACX_site8427],6.45
8,ATAAAAATATTGTCTAGTACATATTTATAATAAAAA [XGTACX_site7523],6.54
9,TATATATATGAGTATACACACCTGATAAAGGTATAT [CACACA_site5462],6.87
10,GATTACTAGAAATGCACACACTGATAAAATAAGGAA [CACACA_site6131],10.1
11,TTAAACTTGAAACACACACACACACCGATATAAAAA [CACACA_site4578],6.9
12,GTGTAAATATAATTAGTTTCACAAAACAAATATTTA [CACACA_negctrl_site717],6.01
13,ATGGGTATTAAGTGTACACATATAGTGTATTTTGTT [CACACA_site4452],6.8
14,AGGCACAAAATTAAATGTACATATATATATATATAT [XGTACX_site3323],9.44
15,TATTATTAATATGTATGGTTGTAATCTGTGTCTCCT [TGCATGCA_negctrl_site190],6.57
16,AATATAATTTTTTATTGTACAAAAAAATTATTTAAT [XGTACX_site3248],6.2
17,AATAAGTATACACATACACACACACCCAAAAAAAAA [CACACA_site8034],6.95
18,TTTTTTTTTATCAAATGTACATATATATAATAATAA [XGTACX_site3941],6.45
19,CATTTTGTAAGATATGCACACATGGATCATATTTTA [CACACA_site423],9.5
20,AAAAAGAAAAATTGCACACACTTATAAAAATATACG [CACACA_site6074],8.71
21,TATATAAGAATATATACACACATATATGTATATATA [CACACA_site2178],6.45
22,TTTTACAATGAAATATGTACTTAAATGTCCAAATTC [XGTACX_site781],6.06
23,TTAACCATTAATTCTCTACACACTTTTATTTTATTT [CACACA_site8522],6.78

row,Sequence,gcPBM binding intensity (ln)
1,GTTAACAAATAATGCACACAAATGGATAAAATTATA [CACACA_site3725],9.97
2,ACATTCAAGCGTAATTGTACATACATATATATATAT [XGTACX_site8876],9.02
3,TATTGTATCCTTAATGCATGCACCAAATAAAAAAAG [TGCATGCA_site541],9.48
4,ATGTATATAAATAGTAGTACATTATTTCACACTGTA [XGTACX_site2061],6.13
5,CACACCCACAGACACACACACACATATATAATATAT [CACACA_site594],7.25
6,AAAAAAAAAAAAAAAGCACACACCAATGAGCAGCTT [CACACA_site1845],6.81
7,ATATGTTACAAAGATTGTACTTATTAAGGAGCGACT [XGTACX_site5094],6.34
8,TAATATATGTATTATGCATGTGAATAAGCACTTGAT [TGCATGCA_site848],6.6
9,TATAATCATATACACGCATGTATAAAATTTAATACT [TGCATGCA_site700],6.59
10,ATATATATATAATGTAGTACTATTTAATAATAAGCC [XGTACX_site1263],8.72
11,ACCATATGTACATTTTTTTTTTTTTTTTTTTTTTTT [CACACA_negctrl_site1188],7.08
12,TTCATATGTTTTAACACACACGCATATATTATATAT [CACACA_site2007],6.94
13,AAAAAAATTTGGCATACACACACACCCCCACCCACA [CACACA_site8094],7.4
14,AATAATTTGGTCTTATCAAAAATTAAAAATAAATAA [XGTACX_negctrl_site430],6.05
15,AAAAAACATTTTCGAGTGCATGTTTTGCTTTATTTC,6.65
16,TTAAATGTTAAAAGGGTGCTATTATATAAATGAAAA [GTGCAC_site9882],6.84
17,ATGACAATTCAAAATTGTACATAAAAAAAAAAAAAA [XGTACX_site7560],6.47
18,TGTAAACATAAGATATGTACTTATATCATATTATAA [XGTACX_site6883],6.09
19,GTTTTATATTATATATGTACATATCCATGAGATATA [XGTACX_site3328],7.48
20,AAATAAAAATAAAATAAAATAAAATTAAATGGGAAT [GTGCAC_negctrl_site349],6.47
21,TTTAACTTTTATATAACACACATATTGTAATTATGT [CACACA_site6486],6.58
22,TAAAAATTACTATATGAACACACATGATTAGATATA [CACACA_site9012],6.33
23,AGGTGATTAATATATACACACATACATATATATATA [CACACA_site8913],8.75

row,Sequence,gcPBM binding intensity (ln)
1,TATAAGCTTTCAATGTGTACATATTATTTTATTATT [XGTACX_site3988],7.1
2,TCTTATAAACATGTATATATTAAAAAAAAAAAAAAA [TGCATGCA_negctrl_site86],6.5
3,AAAAATTACCCTTGTGTACACATATATTATCTGTAT [CACACA_site4513],7.89
4,AACATATTGGATTTAGTGCACATATATATCATAATA,10
5,TAATAATAATTAAATTGTACATATAATATAATATAA [XGTACX_site8554],6.46
6,ATATTATCATATTCGAGTACACGAAGTATTATTGCA [XGTACX_site6765],6.52
7,AATAAAGTAATAACTACACACATTTATAAAAAAGTA [CACACA_site3753],6.29
8,ACAAGAGAAAAAAATACACACAAGATAAAAATGTAT [CACACA_site607],6.52
9,ATATATATAGATCGAAGTACAGATAGAATGAAAATA [XGTACX_site2695],6.8
10,TAAAAAAATTTTACAAGTACAAAAAAATGTAATAAA [XGTACX_site4829],6.41
11,AACCATAAAAAGTGTACACATATAAAAAATATGGAA [CACACA_site4199],7.4
12,TATATAAATTAACCAGTGCATTATTTGGAAATTATT,9.4
13,ATATATCATCATGTATGTACACACATACATATATTA [XGTACX_site2814],6.64
14,TATGCTTTTACAATGTGTACTTATATTTTTCACAGG [XGTACX_site6201],6.79
15,TAATTTTCAATAATTTGTACATAATTTTTATAAATT [XGTACX_site8133],6.29
16,ACAATTATTTTGTTCTTTAATGGTAGGTTCTATGTC [CACACA_negctrl_site1419],6.17
17,TTACACATGTTTAACTGTACACATAATAGCAATATT [XGTACX_site8545],7.27
18,CATAAATTACTTTTTACACACTAAAATAAAATACAA [CACACA_site1135],6.46
19,AATACACGCAGACACACACACACACGCACATATATA [CACACA_site6447],7.39
20,CTAAAAAATAGTAAAAGTACATAAATAATTTTGCTT [XGTACX_site8919],5.74
